# Reference: US20240166752A1 (HEFEI TG IMMUNOPHARMA, published 2024)
# T1: MICA expressed on CHO-K1-MICA cells (human, UniProt Q29983 24-383)
# T1 construct: Full-length entry as expressed from the lentiviral vector
# T1 sequence: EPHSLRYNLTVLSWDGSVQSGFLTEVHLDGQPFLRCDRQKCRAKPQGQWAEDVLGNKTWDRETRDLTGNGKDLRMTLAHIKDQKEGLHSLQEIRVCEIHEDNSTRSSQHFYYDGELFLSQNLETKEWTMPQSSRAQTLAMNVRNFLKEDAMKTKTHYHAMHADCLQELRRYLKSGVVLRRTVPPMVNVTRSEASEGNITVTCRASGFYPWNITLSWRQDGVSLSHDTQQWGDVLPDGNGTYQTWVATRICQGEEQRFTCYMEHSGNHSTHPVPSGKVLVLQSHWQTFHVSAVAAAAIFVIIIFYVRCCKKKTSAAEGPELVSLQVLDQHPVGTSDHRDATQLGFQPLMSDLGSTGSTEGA
# B1: NKG2D extracellular region Fc fusion protein (NKG2D-Fc) (Fc fusion)
# chain: IWSAVFLNSLFNQEVQIPLTESYCGPCPKNWICYKNNCYQFFDESKNWYESQASCMSQNASLLKVYSKEDQDLLKLVKSYHWMGLVHIPTNGSWQWEDGSILSPNLLTIIEMQKGDCALYASSFKGYIENCSTPNTYICMQRTV[gap - human IgG1 Fc]
# notes: expressed in the applicant's laboratory; also called receptor NKG2D
# Molecular target: T1, MICA expressed on CHO-K1-MICA cells
# Experiment: flow cytometry, NKG2D-Fc on CHO-K1-MICA cells in the presence of antibody 5A1
# Experimental: The MICA antibody can promote the signaling pathway of MICA and its receptor NKG2D by binding to the extracellular region of MICA. In this example, the effect of the MICA antibody on the binding of MICA to its receptor NKG2D was detected by flow cytometry.
# The CHO-K1-MICA cells obtained in Example 4 were diluted to 2×10⁶ cells/mL with PBS and were added to a 1.5 mL EP tube in a volume of 100 μL/tube. Mouse serum at 10 μL/tube was added thereto and was blocked at 4° ° C. for 30 min. MICA antibodies No. 5A1 and the control antibody IgG1 (Biolegend, MG1-45) with a series of dilution gradients (10⁻⁴, 10⁻³, 10⁻², 10⁻¹, 10⁰, 10¹ μg/mL) were added and incubated at 4° C. for 30 min. NKG2D extracellular region Fc fusion protein (NKG2D-Fc, SEQ ID NO: 32, obtained by expression in this laboratory) was added at 2 μg/tube and incubated for 30 min at 4° C. The EP tube was added with 1 mL of PBS and centrifuged at 3500 rpm at 4° C. for 5 min. The supernatant was discarded and the precipitate was washed once more with PBS. After centrifugation, the supernatant was discarded. The cells were resuspended with 100 μL/tube of PBS, and 1 μL/tube of 647-labeled mouse anti-human antibody secondary antibody (Biolegend, HP6017) was added thereto, and incubated at 4° C., under the condition of avoiding light, for 30 min. […] The cells were resuspended with 200 μL/tube of PBS and detected by flow cytometry. […]
binder,measurement,value
B1,binding result,binds
